Results published in PubChem BioAssay AID1240 (Sanford-Burnham Center for Chemical Genomics, 2008).
In all, about 50,000 compounds went through this assay and about 800 (1.6%) showed an effect of 50% or more. The list shows a part of the results.

Molecular target: Bcl-2-like protein 10 (Homo sapiens) (UniProt Q9HD36)
Assay: Phenotype converters, Bcl-B/TR3 peptide binding displacement, primary biochemical FP (AID 1240);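 further: 0% = Bcl-B with tracer peptide and DMSO and 100% = tracer peptide lacking Bcl-B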
Conditions: GST-Bcl-B / FITC-TR3 peptide fluorescence polarization; stronger effect = higher value; compound at 3.75 mg/L

Sequence of UniProt Q9HD36 (Q9HD36 whole entry, looked up): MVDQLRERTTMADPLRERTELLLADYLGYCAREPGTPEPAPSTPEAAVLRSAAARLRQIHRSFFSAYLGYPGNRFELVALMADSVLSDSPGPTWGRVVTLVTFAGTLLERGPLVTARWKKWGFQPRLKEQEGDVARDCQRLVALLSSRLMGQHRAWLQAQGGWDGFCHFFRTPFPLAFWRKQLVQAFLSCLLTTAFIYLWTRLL

| SMILES | displacement [%] |
| --- | --- |
| O=C(N/N=C\c1ccccc1O)c1cncc(Br)c1 | -4.6 |
| COc1c(Cl)ccc(Cl)c1C(=O)Nc1cccc(Br)c1 | -10.4 |
| O=C(Nc1cccnc1)c1cccc(Br)c1 | -6 |
| Cc1ccccc1OCCOc1ccc(/C=C2/SC(=S)N(C)C2=O)cc1 | 0.3 |
| CCOc1ccc(NC(=O)c2cc(-c3ccc(OC)c(OC)c3)nc3ccccc23)cc1 | 48.7 |
| CCCC(=O)c1ccc(N2CCN(C(=O)c3ccccc3F)CC2)c(F)c1 | -11.5 |
| COc1ccc(/C=C2\SC(=S)N(NC(=O)c3ccncc3)C2=O)cc1OC | -13.6 |
| COC(=O)c1ccc(OC)cc1OCCN1CCOCC1 | -14.1 |
| COc1ccc(C2/C(=C(/O)c3ccccc3)C(=O)C(=O)N2c2nc3ccccc3s2)c(OC)c1 (configuration not stated) | 12.2 |
| O=C(O)CCN1C(=O)/C(=C/C=C/c2ccc([N+](=O)[O-])cc2)SC1=S | 3.2 |
| CC1(C)OC2OC(COC(=O)c3ccccc3)C3OC(C)(C)OC3C2O1 (configuration not stated) | 14.6 |
| COc1ccc(C2Nc3ccccc3C(=O)N2Cc2ccco2)cc1COc1cccc(C)c1C (configuration not stated) | 8 |
| O=C(CCC(=O)Nc1ccccc1)N/N=C/c1cccnc1 | 1.7 |
| Cc1cc(O)ccc1N=Cc1ccc(N2CCOCC2)cc1 | -2.8 |
| Cc1ccc(C)c(NC(=O)c2ccc([N+](=O)[O-])cc2)c1 | 11 |
| CN(C)c1cccc(NC(=O)c2cc(F)c(F)cc2Cl)c1 | 8.2 |
| CCOC(=O)C(C(=O)OCC)C(CC(=O)c1ccccc1)c1ccccc1 (configuration not stated) | 1.1 |
| Cc1csc(NC(=O)c2c(O)c3ccccc3[nH]c2=O)n1 | 2.6 |
| COc1ccc(NC(=O)c2cc(-c3ccc(C)o3)nc3ccccc23)c(OC)c1 | -0.2 |
| COc1ccc(NC(=O)c2sc(N)c(C(=O)OC(C)C)c2C)cc1 | -1.3 |
| COc1ccc(S(=O)(=O)N(CCc2ccccc2)CC(=O)Nc2ccccc2Cl)cc1 | 11.9 |
| NC(=O)C1CCN(C2CC(=O)N(c3cccc(Br)c3)C2=O)CC1 (configuration not stated) | -0.5 |
| CCOc1cc(OCC)cc(C(=O)Nc2ccc(C(C)CC)cc2)c1 (configuration not stated) | 11.8 |
| CCCCc1ccc(NC(=O)C2COc3ccccc3O2)cc1 (configuration not stated) | -0.9 |

| SMILES | displacement [%] |
| --- | --- |
| Cc1cc([N+](=O)[O-])ccc1NC(=O)/C=C/c1ccccc1Cl | 8.3 |
| COc1ccccc1-c1n[nH]c(=S)o1 | -0.8 |
| CCOc1cc(/C=C2/SC(=S)N(CC)C2=O)ccc1OCc1ccccc1 | 17.2 |
| COc1ccc(-c2cc(-c3cc(Cl)ccc3O)[nH]n2)cc1 | -7.3 |
| CCCC(=O)Nc1c(C)ccc2nsnc12 | -3.3 |
| Cc1ccc(C(=O)c2coc3ccc(O)c(CN4CCOCC4)c23)cc1 | 0.2 |
| COc1ccc(-c2cc(=O)n(-c3ccc(Oc4ccccc4)c(S(=O)(=O)O)c3)[nH]2)cc1 | 12.8 |
| Cc1ccccc1NC(=O)c1c(N)sc2c1CCCC2 | 12.7 |
| COCP(=O)(c1ccccc1)c1ccccc1 | 12.4 |
| O=[N+]([O-])c1ccc(N2CCN(S(=O)(=O)c3ccccc3)CC2)c(Cl)c1 | 17.6 |
| COc1ccc(/C=C/C(=O)Nc2cccc(C(F)(F)F)c2)cc1Br | 10.4 |
| CCNC(=S)Nc1ccc(C(=O)O)cc1 | -5.4 |
| CC(C)c1ccccc1OCC(=O)Nc1cccc(C(=O)O)c1 | 1.4 |
| CCC(C)NCC(=O)NCCNc1ccc([N+](=O)[O-])cc1Cl (configuration not stated) | 0.9 |
| Cc1cc(Oc2ccccc2F)c(F)cc1[N+](=O)[O-] | 5.3 |
| CS(=O)(=O)N(CC(=O)Nc1ccc(Br)cc1)c1ccc(Cl)cc1 | 12.1 |
| Cc1cc(C)nc(/N=C(/N)C2=C(O)CC(C)(C)CC2=O)n1 | 9.7 |
| COc1ccc(NS(=O)(=O)c2c(C)cc(C)cc2C)cc1 | -5.7 |
| COc1ccc(NC(=O)CC(c2ccccc2)c2ccccc2)cc1 | 12.2 |
| CCOC(=O)C1=C(C)N=c2s/c(=C\c3ccc(-c4cccc(C(=O)O)c4)o3)c(=O)n2C1c1ccc(OC)c(OC)c1 (configuration not stated) | -5.6 |
| COc1ccccc1C1SCC(=O)N1c1ccc(Cl)c(Cl)c1 (configuration not stated) | 9.2 |
| C/C(O)=C(\C#N)P(C)(=O)OCC(C)C (configuration not stated) | 10.9 |
| CN(C)c1ccc(NC(=S)Nc2ccccc2)cc1 | 6.1 |
| Cc1ccc(N2C(=O)CC(NCc3ccccc3)C2=O)cc1 (configuration not stated) | -2.6 |

| SMILES | displacement [%] |
| --- | --- |
| Cc1c(N(C(=O)c2ccccc2)C(=O)c2ccccc2)c(=O)n(-c2ccccc2)n1C | 14.1 |
| Cc1cccc(OCc2nnc(NC(=O)Nc3ccc(Cl)cc3)s2)c1C | 4.5 |
| O=C(O)c1cc(-c2ccc([N+](=O)[O-])o2)c(Cl)cc1Cl | 16.2 |
| Cc1ccccc1CNC(=O)c1ccc(N(Cc2ccccc2)S(C)(=O)=O)cc1 | -2.8 |
| Cc1cccc(N2C(=O)c3ccc4c5c(ccc(c35)C2=O)CC4)c1C | -12.7 |
| O=C(Nc1ccc(N2CCOCC2)cc1)c1ccc2c(c1)OCO2 | -8.7 |
| O=C(Oc1ccc(NS(=O)(=O)c2ccccc2)cc1)c1ccc(Cl)cc1 | 7.1 |
| CCNC(=O)c1cc(-c2ccc(Cl)s2)nc2ccccc12 | -5.8 |
| O=C(NNC(=O)c1sc2ccccc2c1Cl)Nc1cccc(Cl)c1 | 8.4 |
| CCCCCC1C(CC(=O)OC)CCC1NCCN(C)C (configuration not stated) | -0.4 |
| O=C1C2CCCC1C(c1ccccc1)NC2c1ccccc1 (configuration not stated) | 3 |
| COc1ccc(/C=C2\SC(=O)N(CC(=O)Nc3ccccc3Cl)C2=O)cc1OC | 7.8 |
| CC(=O)Oc1c(C=C(C#N)C#N)[nH]c2ccccc12 | 34 |
| Cc1ccc(C(=O)NN2C(=O)/C(=C/c3ccc4c(c3)OCO4)SC2=S)cc1 | -27.1 |
| CCSc1nncn1/N=C/c1ccc(OC)c(OC)c1 | -22.4 |
| CCC1CCc2c(sc(NC(=O)c3cccnc3)c2C(N)=O)C1 (configuration not stated) | 9.6 |
| COc1ccccc1NC(=O)c1c(NC(=O)Cc2ccccc2)sc2c1CCCCC2 | 9.3 |
| O=C(NCCN1CCN(C(=O)Nc2cccc(Cl)c2)CC1)Nc1cccc(Cl)c1 | -5.3 |
| O=C(O)c1ccccc1-c1ccccc1/C=N/O | 4.9 |
| CCCC(=O)c1ccc(N2CCN(C(=O)c3ccccc3)CC2)c(F)c1 | -12.9 |
| NC(=O)c1cccc(NC(=O)CCC(=O)O)c1 | -8.5 |
| Cc1cc(OCC(=O)Nc2ccc(Cl)cn2)ccc1Br | 7.7 |
| CCOc1cc(/C=C2/C(=O)NC(=O)N(c3cccc(C)c3)C2=O)cc(Br)c1O | -4.1 |
| COc1ccc(-c2cc(C(F)(F)F)n3ncc(C(N)=O)c3n2)cc1OC | 36.4 |
